Hit rate of the full screen: of about 48,000 compounds, about 120 (0.25%) were called active. Not shown: some 4% with an inconclusive outcome. The call rests on the fitted dose curve; in most records, active means well fitted activation curve with a large enough effect; inconclusive means small, poorly fitted or top-dose-only effect, or another doubt; inactive means no such curve, though single readings can be large or run the other way. The entries are a selection whose mix differs from that of the whole data set. Where no call is shown, the source filed none.
Experiment: Primary qHTS for Identification of Small Molecule Activators of Huntingtin-Antisense Promoter Activity; further: nearly all actives have a fitted effect of over 55% in size
Conditions: HEK293 HTT-AS promoter firefly luciferase reporter, 24 h; activity change, positive = activation: at 57.5 µM (top of the series), percent change from vehicle, -100% = no light
Outline: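 Firefly luciferase readout (Dual-Glo, 10 min RT) after 24 h, 37 °C compound exposure (final up to 57.5 uM) of HEK293 reporter cells cultured 24 h beforehand; PTC124 at 50 uM final as control inhibitor; activity scaled vehicle 0%, zero RLU -100%.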
Potency means the concentration at half of the fitted maximal effect.

Structure (SMILES) | activity change, positive = activation | Potency
Cc1cc(=O)n2c(C(=O)Nc3ccc(F)c(Cl)c3)c(C(=O)Nc3cccc(C)c3C)sc2n1 | -6.99% | –
COc1cc(OC)cc(C(=O)Nc2ccc3oc(-c4ccc(Cl)cc4)nc3c2)c1 | 10.3% | –
CCc1cccc(CC)c1NC(=O)c1c(C)oc2ccc(O)c(CN3CCOCC3)c12 | -3.77% | –
COc1nc(Oc2ccc(=O)n(-c3ccccc3)n2)nc(N(C)C)n1 | -0.0665% | –
COc1cc(C2C(=O)N(C3CCC(C)CC3)CC(=O)N2CCc2ccc(Cl)cc2)ccc1OC(C)C (stereo unspecified) | -2.39% | –
CCc1nn(CC(=O)NCCCc2ccccc2)c(=O)c2cc3cc(F)ccc3n12 | -4.78% | –
Cc1ccc(NC(=O)CC(c2ccc(F)cc2)N2Cc3ccccc3C2=O)cc1C (stereo unspecified) | -10.4% | –
Cc1ccc(-c2nn(CCC(N)=O)c(=O)c3ccccc23)cc1 | 2.44% | –
COc1ccc2c(C)c(CCC(=O)NCc3ccccc3Cl)c(=O)oc2c1C | -6.07% | –
O=C(Nc1ccc(OC(F)(F)F)cc1)c1noc2c1CCCC2 | – | active: 1.12 µM
COC(=O)c1ccc(NC(=O)CC2C(=O)N(c3cccc(OC)c3)C(=O)N2C(C)C)cc1 (stereo unspecified) | -1.07% | –
Cc1cc(NC(=O)c2cc(-c3cccc(Cl)c3)on2)n(-c2ccccc2)n1 | -3.72% | –
CCOC(=O)c1c(NC(=O)CCCOc2ccccc2C)sc2c1CCC(C)C2 (stereo unspecified) | -2.26% | –
COc1ccccc1OCCSc1nc(-c2ccc(C(C)(C)C)cc2)nc2cc(=O)[nH]n12 | -1.3% | –
Nc1nnc(SCC(=O)Nc2ccc(Cl)cc2)s1 | inactive: 16.4% | –
Cc1ccc(CCNC(=O)c2cc3ccccn3n2)cc1 | 25.8% | –
CCOc1ccc(S(=O)(=O)Nc2cc3c(C(=O)OCc4ccccc4)c(C)oc3c3ccccc23)cc1 | -35.2% | –
COc1ccc(CNC(=O)CCc2c(C)nn(-c3ccc(N4CCCC4)nn3)c2C)cc1 | -5.75% | –
COc1ccc(CCNC(=O)CCc2c(C)c3ccc(O)c(C)c3oc2=O)cc1 | -0.379% | –
Cc1ccc(NC(=O)C2CCC(CNS(=O)(=O)c3cccs3)CC2)cc1C (stereo unspecified) | inactive: -29.3% | –
COc1cc(NC(=O)c2ccc(C(=O)Nc3cc(OC)c(Cl)cc3OC)cc2)c(OC)cc1Cl | -1.47% | –
CCCN1CCN(CCCNC(=O)Cn2nc(C)n3c(cc4cc(F)ccc43)c2=O)CC1 | -1.52% | –
Cc1ccc(NC(=O)c2cc(-c3ccc4c(c3)OCO4)on2)cc1 | 19.2% | –
CCc1ccccc1NC(=O)CC(c1ccc(F)cc1)N1Cc2ccccc2C1=O (stereo unspecified) | -15.7% | –

Structure (SMILES) | activity change, positive = activation | Potency
Cc1ccc(Cl)cc1NC(=O)c1oc2ccc(S(=O)(=O)N3CCC4(CC3)OCCO4)cc2c1C | inactive: -12.6% | –
COc1ccc(NC(=O)c2c(C)oc3ccc(O)c(CN4CCN(C)CC4)c23)cc1Cl | -6.43% | –
Cc1ccc(-c2nnc(Nc3ccc(C(N)=O)cc3)c3ccccc23)cc1S(=O)(=O)N1CCCCC1 | -31.4% | –
c1ccc(N2CCN(c3ncnc4c3nc3n4CCCC3)CC2)cc1 | inactive: -64.6% | –
COc1ccc(CNC(=O)Cc2c(C)c3ccc(O)cc3oc2=O)cc1 | 4.08% | –
COc1cccc(C(=O)Nc2nc(-c3nnn(-c4cc(C)ccc4C)c3C)ns2)c1 | inactive: -30.7% | –
Cc1c(NC(=O)Nc2cccc(C(F)(F)F)c2)sc2nc3n(c(=O)c12)CCC(C)CC3 (stereo unspecified) | 3.01% | –
CCOc1cc(C(=O)Nc2cccc(-c3nc4ccccc4o3)c2)cc(OCC)c1OCC | -0.398% | –
COc1ccc(OC)c(-c2cc(C(=O)Nc3cccc(Cl)c3C)no2)c1 | -10.2% | –
CCc1ccc(NC(=O)c2ccc(F)c(S(=O)(=O)N3CCC(C)CC3)c2)cc1 | inactive: -35.9% | –
CCCCNS(=O)(=O)c1ccc2nc(NC(=O)c3cccnc3)sc2c1 | inactive: -24% | –
CCc1nn2c(=O)c(S(=O)(=O)Nc3ccc(OC)c(Cl)c3)c(C)nc2s1 | -30.8% | –
Cc1ccc(CSCCNC(=O)C2CCN(S(=O)(=O)Cc3ccccc3)CC2)cc1 | -9.32% | –
Cc1ccc(Cn2c(CO)cnc2SCC(=O)NCc2ccccc2Cl)cc1 | 0.31% | –
CCCCCOc1ccccc1CN1C(=O)C(=O)c2cc(C)ccc21 | inactive: -37.9% | –
COc1ccc(NC(=O)c2c(NCc3ccc(OC)c(OC)c3OC)sc3c2CCC3)c(OC)c1 | inactive: -13.1% | –
Cn1c(=O)n(C)c2cc(N3CCOCC3)c(NC(=O)c3ccc(C(C)(C)C)cc3)cc21 | 0.471% | –
Cc1cccn2c(=O)c3cc(C#N)c(=O)n(-c4nnc(SCc5ccc(F)cc5)s4)c3nc12 | inactive: -4.47% | –
Fc1ccc(C(NCCc2ccc(Cl)cc2)c2nnc(-c3ccccc3Cl)o2)cc1 (stereo unspecified) | -18.5% | –
COc1ccc(S(=O)(=O)N2CCC(n3c(C)nc4cccnc43)CC2)cc1Cl | -31.3% | –
COc1ccc(CNC(=O)c2cnn(-c3ccccc3)c2-n2cccc2)cc1OC | -27.2% | –
COc1cccc2c(NCc3ccccc3)nc(-n3c(N)nc4ccccc43)nc12 | inactive: -4.26% | –
CC(=O)c1ccc(NC(=O)Nc2sc3nc4n(c(=O)c3c2C)CCC(C)CC4)cc1 (stereo unspecified) | 2.98% | –
Clc1ccc(CCNC(c2ccc(Cl)cc2)c2nnc(-c3ccccc3)o2)cc1 (stereo unspecified) | -7.7% | –

Structure (SMILES) | activity change, positive = activation | Potency
CCc1cccc(CC)c1NC(=O)c1c(C)oc2ccc(O)c(CN3CCCC3)c12 | -9.52% | –
Cc1ccnc(NS(=O)(=O)c2ccc(NC(=O)c3ccc(C)c(C)c3)cc2)n1 | 12.9% | –
COC(=O)c1c(NC(=O)C2c3ccccc3Oc3ccccc32)sc2c1CCC(C(C)(C)C)C2 (stereo unspecified) | -11.9% | –
COc1cccc(-c2cc(C(=O)NCc3ccc(F)cc3)no2)c1 | -2.7% | –
O=C1C(=O)N(C2CCN(C(=O)c3cccc(Cl)c3)CC2)CCN1Cc1ccc(F)cc1 | 0.788% | –
COc1ccccc1N1CCN(C(=O)c2cc(CC(C)C)on2)CC1 | 4.17% | –
CCOc1ccccc1CNC(=O)CCc1c(C)nn(-c2ccc(N3CCCC3)nn2)c1C | -12.3% | –
CCOC(=O)c1c(C)[nH]c(C)c1S(=O)(=O)N1CCC(C(=O)Nc2cc(C)ccn2)CC1 | inactive: 2.74% | –
CCc1nn(CC(=O)NCc2ccco2)c(=O)c2cc3c(OC)cccc3n12 | -5.6% | –
COc1cc(NC(=O)C2CCN(S(=O)(=O)Cc3ccccc3)CC2)c(OC)cc1Cl | 0.759% | –
O=C(NCc1ccccc1)C(=O)NCC(c1ccco1)S(=O)(=O)c1ccc(Cl)cc1 (stereo unspecified) | inactive: -27.8% | –
COc1cc(OC)cc(C(=O)Nc2cc3c(cc2N2CCOCC2)n(C)c(=O)n3C)c1 | 4.79% | –
CC1CCN(c2nn3c(=O)c(C(=O)NC(C)C)cnc3s2)CC1 | 6.54% | –
COc1cccc(CNS(=O)(=O)c2ccc3c(c2)C(C(C)C)C(=O)N3)c1 (stereo unspecified) | inactive: -26.1% | –
Cc1ccn2c(Nc3ccc(C(C)C)cc3)c(-c3cccnc3)nc2c1 | inactive: -23.7% | –
Cc1ccc(S(=O)(=O)Nc2cc3c(cc2N2CCOCC2)n(C)c(=O)n3C)cc1 | -0.0066% | –
Cc1oc2ccc(O)c(CN3CCOCC3)c2c1C(=O)Nc1ccc(C(C)C)cc1 | -20.8% | –
CC(=O)N1c2ccccc2CC1C(=O)N1CCN(c2cccc(C)c2C)CC1 (stereo unspecified) | inactive: -15.8% | –
COc1cccc(CNS(=O)(=O)c2c(C)nc3scc(C)n3c2=O)c1 | -0.9% | –
COc1ccc2c(c1)cc1c(=O)n(CC(=O)NCCc3ccccc3)nc(C)n12 | -3.28% | –
Cc1ccc2nc(N3CCN(c4ccccc4F)CC3)c3nnnn3c2c1 | -8.65% | –
Cc1cccc(NS(=O)(=O)c2ccc3nc(-c4ccccc4)[nH]c3c2)c1C | inactive: -34% | –
COc1ccc(CNC(=O)CCc2c(C)c3cc4c(C)coc4cc3oc2=O)cc1 | -6.89% | –
CSc1ccc(CNC(=O)CCc2c(C)nn(-c3ccc(N4CCCC4)nn3)c2C)cc1 | -7.94% | –

Structure (SMILES) | activity change, positive = activation | Potency
O=S(=O)(Nc1ccc(-c2ccc(N3CCCC3)nn2)cc1)c1cc(F)ccc1F | 6.97% | –
COC(=O)CN1C(=O)CSc2ccc(S(=O)(=O)Nc3cccc(Cl)c3C)cc21 | -30.1% | –
COC(=O)c1ccc(Cl)c(NC(=O)C2CCN(S(=O)(=O)Cc3ccccc3)CC2)c1 | -11.1% | –
COc1ccc(Nc2nc(N)nc(CSc3nc4cc(OC)ccc4s3)n2)cc1 | -33.6% | –
O=C(Nc1cccc(Br)c1)c1cccc(S(=O)(=O)N2CCCCCC2)c1 | inactive: -29.7% | –
COc1ccccc1C1C=C(c2ccc(Cl)cc2)Nc2nc(-c3ccc(Cl)cc3)nn21 (stereo unspecified) | inactive: -64.2% | –
CCOC(=O)c1c(-c2ccccc2)oc2ccc(NS(=O)(=O)c3ccc(C(C)C)cc3)cc12 | -15% | –
Cc1ccc(S(=O)(=O)Nc2cc(Cl)c3oc4c(c3c2)C(=O)CC(C)(C)C4)cc1 | -10.2% | –
O=C(Nc1ccccc1C(F)(F)F)c1noc2c1CCCCC2 | 1.26% | –
CC(=O)c1c(C)oc2ccc(NS(=O)(=O)c3ccc(C(C)C)cc3)cc12 | -33% | –
COc1cccc(-c2cc(C(=O)Nc3ccc4c(c3)OCO4)no2)c1 | 12.9% | –
CN(C)S(=O)(=O)N1CCC(n2cnc3cccnc32)CC1 | 3.86% | –
COC(=O)Cc1c(C)c2cc3c(c(C)c2oc1=O)OCN(CCc1ccc(F)cc1)C3 | -21.9% | –
O=C(COc1ccc2oc3c(c2c1)CCCC3)Nc1ccc(Cl)cc1 | inactive: -28.1% | –
COc1ccc(C)cc1S(=O)(=O)Nc1cccc(-c2ccc(N3CCC(C)CC3)nn2)c1 | 24.9% | –
CCCCOc1ccc(S(=O)(=O)Nc2ccc(-c3ccc(N4CCCCC4)nn3)cc2)cc1 | 1.26% | –
Cc1cc(C)cc(NC(c2cccc(Cl)c2)c2nnc(-c3ccccc3)o2)c1 (stereo unspecified) | -15% | –
Cc1cc(C)c(S(=O)(=O)Nc2ccc(-c3ccc(N4CCCCC4)nn3)cc2)c(C)c1 | 32.3% | –
CC(C)(O)CC(=O)NCCn1ccc2ncnc(Nc3ccc(Oc4cccc(C(F)(F)F)c4)c(Cl)c3)c21 | inactive: -9.03% | –
COc1ccc(C2C(=O)N(C3CCC(C)CC3)CC(=O)N2C2CCCCC2)cc1OC (stereo unspecified) | -4.14% | –
COC(=O)c1cc2oc3ccccc3c2n1CC(=O)Nc1ccc(OC)c(OC)c1 | 2.47% | –
CCOc1ccc(C2C(=O)N(C3CCCCCC3)CC(=O)N2CCC2=CCCCC2)cc1OC (stereo unspecified) | -27.6% | –
Cc1ccccc1OCCCn1c(-c2ccc(Cl)cc2)nc2ccccc2c1=O | -9.3% | –
COc1ccc(OC)c(NC(=O)CCc2c(C)nn(-c3ccc(N4CCCC4)nn3)c2C)c1 | 3.82% | –
